Measured values as given in PubChem BioAssay AID1346428 (National Center for Advancing Translational Sciences (NCATS), 2018).
Values joined by “and” are separate entries in the source; they are usually repeats but may differ in a detail not shown here. Equal values may be shown once. The campaign covered roughly 48,000 compounds. About 1,200 (2.5%) were called active. Roughly 2% stayed inconclusive and do not appear here.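 Rule for the calls: active = activation of at least 60% and not above a set upper limit (about 1 call in 100 departs from these limits); inconclusive = activation of 40% to 60%, or above that upper limit; inactive = activation under 40%.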 Some of the results follow.

biological target: Probable G-protein coupled receptor 32 (Homo sapiens) (UniProt O75388); test: qHTS for Agonists of Human Resolvin D1 Receptor DRV1; details: CHO-K1 GPR32 beta-arrestin PathHunter luminescence, 90 min; at 76.9 µM; hits give high values; zero percent set by DMSO-only wells; note: 0% is about no effect
Summary of the method: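 Readings come from a cell-based beta-arrestin complementation format: CHO-K1 GPR32 stable cells (2,500/well) treated 90 min with compounds, then beta-Gal substrate added for 1 h before chemiluminescence imaging.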

UniProt O75388, sequence (O75388 whole entry, looked up): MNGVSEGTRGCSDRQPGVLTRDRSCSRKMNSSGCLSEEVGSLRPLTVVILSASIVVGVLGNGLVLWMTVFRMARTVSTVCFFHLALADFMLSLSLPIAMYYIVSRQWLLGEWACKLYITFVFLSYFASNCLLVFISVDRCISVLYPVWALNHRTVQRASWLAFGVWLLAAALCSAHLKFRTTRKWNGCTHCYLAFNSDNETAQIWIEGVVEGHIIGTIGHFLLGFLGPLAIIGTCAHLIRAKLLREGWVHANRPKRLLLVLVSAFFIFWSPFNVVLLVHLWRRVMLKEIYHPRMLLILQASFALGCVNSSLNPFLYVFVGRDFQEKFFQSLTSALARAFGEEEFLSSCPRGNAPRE

activation, inactive:
Cc1cccc(CN2C(=O)c3ccccc3S(=O)(=O)c3ccc(C(=O)N(C)Cc4ccccc4)cc32)c1 -7.17%, COc1cccc(NC(=O)CCc2nnc3n(Cc4ccccc4Cl)c(=O)c4ccccc4n23)c1 -7.7%, Cc1ccc(NC(=O)c2c(C)nc3sc(C(=O)Nc4ccc(F)cc4)c(N)c3c2-c2ccc(Cl)cc2)c(C)c1 -3.86%, CCOc1ccccc1C(=O)Nc1ccc(-n2nncc2-c2ccccc2)cc1 -13%, CCOC(=O)c1ccc(NC(=O)c2sc3ccccc3c2Cl)cc1 -22.9%, COc1ccccc1C(=O)Nc1nnc(S(=O)(=O)N2CCN(c3ccc(F)cc3)CC2)s1 2.73%, Cc1ccc(-c2nnc3ccccc3c2C(=O)Nc2ccc(C)c(F)c2)cc1 -12.1%, CCOC(=O)c1ccc(NC2(c3ccccc3)C(=O)c3ccccc3C2=O)cc1 -13%, COc1cc(OC)c(NS(=O)(=O)c2cc3c(cc2C)N(C(C)=O)CCO3)cc1Cl -20.5%, CCc1nnc(SCc2nc(-c3cccc(Cl)c3)oc2C)c2cc3sc(C)cc3n12 -12.5%, COc1ccccc1NC(=O)CN(c1cc(C)cc(C)c1)S(=O)(=O)c1c(C)[nH]c(=O)[nH]c1=O 24.2%, CCC(C(=O)Nc1ccc(C(C)C)cc1)n1nc(C)n2c(cc3cc(C)ccc32)c1=O (configuration not stated) -4.73%, NC(=O)c1c(NC(=O)c2cc(-c3ccc(F)cc3)on2)sc2c1CCCC2 -2.85%, Cc1cccc(NC(=O)Cn2nnc(C(=O)NCc3cccs3)c2N)c1 15.8%, Cc1ccccc1C(=O)NCc1nc(-c2ccc(Cl)cc2)no1 -2.46%, Cc1ccc(C)c(Cn2c(=O)cc(C(F)(F)F)c3c(C)nn(C)c32)c1 -9.12%, COc1ccc(Cl)cc1NC(=O)CCn1c(=O)c2cccn2c2ccccc21 -12.8%, CN(C)c1ccc(CNC(=O)C2CCCN(S(=O)(=O)c3ccc4c(c3)CCCC(=O)N4)C2)cc1 (configuration not stated) 4.68%, CCN(C(=O)CCc1nc(-c2ccc(C)cc2)no1)c1cccc(Cl)c1 -30.1%, Cc1ccccc1OCC(=O)Nc1ccc(C(=O)OCc2cc(=O)n3ccsc3n2)cc1 1.22%, Cc1ccccc1NC(=O)c1nc(S(C)(=O)=O)ncc1N(Cc1ccco1)Cc1sccc1C -23%, Cc1ccc(-c2nc(NC(=O)CSc3ccc4ccccc4n3)ns2)cc1 -12.9%, COC(=O)c1cc2sccc2n1CC(=O)Nc1ccc(C)cc1C -10%, COc1cc2c(cc1OC)C(COc1ccc3c(C)cc(=O)oc3c1)N(C(=O)Cc1ccccc1)CC2 (configuration not stated) -4.9%, [O-][n+]1cccc(/C(Cl)=N/OC[C@@H](O)CN2CCCCC2)c1 7.98%, Cc1ccc(S(=O)(=O)c2cn(Cc3ccccc3)c3cc(N4CCCC4)c(F)cc3c2=O)cc1 -11.1%, CCOc1ccccc1C(=O)NC1(C(F)(F)F)C(=O)Nc2c1c(=O)[nH]c(=O)n2-c1ccccc1 (configuration not stated) 13.2%, Cc1cc(C)c(Cn2c3ccccc3c3cnn(CC(=O)NCCC4=CCCCC4)c(=O)c32)c(C)c1 -10.6%, COc1cccc(CNC(=O)c2ccc3nc(-c4ccccc4)c(-c4ccccc4)nc3c2)c1OC -13%, CCC(C)Sc1oc(-c2ccco2)nc1S(=O)(=O)c1ccc(Cl)cc1 (configuration not stated) -42.8%, COc1ccc(Nc2nnc(-c3ccc(C)c(S(=O)(=O)NCc4nc5ccccc5[nH]4)c3)c3ccccc23)cc1 -25.4%, Clc1ccc(-c2csc(-c3nc(-c4ccc(Br)s4)cs3)n2)cc1 3.85%, O=C(NCc1ccc(Cl)cc1)c1ccc2c(c1)NC(=O)C(CS(=O)(=O)Cc1ccc(F)cc1Cl)N2 (configuration not stated) -10.9%, Cc1ccc(NC(=O)Cn2nnc(C(=O)NCCc3ccccc3)c2N)cc1 -23.3%, COc1ccc(C)cc1NC(=O)c1cc2ccccn2n1 4.88%, O=C(CCN1CCN(CCO)CC1)Nc1ccc(Br)cc1 -4.25%, CCc1ccc(NC(=O)C2CCCN(S(=O)(=O)c3cccc4nsnc34)C2)cc1 (configuration not stated) -12.8%, CCOc1ccccc1CNC(=O)CCC(=O)N1CCSc2ccccc21 -15.5%, COc1ccccc1Cc1nc2ccccc2nc1SCC(=O)Nc1ccc2c(c1)OCO2 -15.5%, COc1ccccc1CNC(=O)CCCCn1c(=O)c2ccccc2n(CC(=O)Nc2c(C)cc(C)cc2C)c1=O -7.85%, CN1C(CSCC(F)(F)F)Nc2cc(Cl)c(S(N)(=O)=O)cc2S1(=O)=O (configuration not stated) 23.6%, O=[N+]([O-])c1cc(-c2nc(-c3ccccc3)no2)ccc1NCc1cccnc1 18.7%, CCCN(CCC)C(=O)CSc1c2c(nc3ccc(Cl)cc13)CCCC2 36.8%, CC(=O)[C@]1(O)Cc2c(O)c3c(c(O)c2[C@@H](O[C@H]2C[C@H](N)[C@H](O)[C@H](C)O2)C1)C(=O)c1ccccc1C3=O -63.5% and -55.3%, Cc1ccc(NC(=O)CN2C(=O)C(c3ccc(C(C)(C)C)cc3)=NC2(C)C)cc1 -8.15%, Cc1cc(C)cc(-n2c(SCC(=O)Nc3cccc(F)c3)nc3c([nH]c4ccccc43)c2=O)c1 4.76%, COc1ccc(N2CCN(C(=O)COc3ccccc3C#N)CC2)cc1 -7.12%, Cc1ccc(C(=O)Nc2ccc(-c3nc4ccccc4o3)cc2)cc1Cl -6.7%, Brc1ccc(Nc2c3c(nc4nncn24)CCC3)cc1 -18.7%, COc1ccc(OC)c(NC(=O)Cn2c(=O)n(Cc3ccco3)c(=O)c3cc(OC)c(OC)cc32)c1 19.8%, Cc1ccc(C)c(NC(=O)C(Cc2ccccc2)n2cccc2)c1 (configuration not stated) -15.4%, Cc1ccc(NC(=O)C2CCC(CNS(=O)(=O)c3ccc4c(c3)CCCC(=O)N4)CC2)cc1F (configuration not stated) 11.5%, COCCNc1nc2c(c(=O)n(Cc3cccc(Cl)c3)c(=O)n2C)n1C -2.6%, CCc1ccc(NC(=O)C2=C(C)C(=O)OC23CCCCC3)cc1 -24.3%, COc1ccc(OCC(=O)Nc2c(C(=O)N3CCN(c4ccccc4)CC3)oc3ccccc23)cc1 -5.61%, COc1ccc2c(c1)c1c(c(=O)n(Cc3ccccc3)c(=O)n1Cc1ccccc1Cl)n2C -0.87%, O=C(NCc1ccc(F)cc1)c1cc2cccc3c2n1CCS3 -21.9%, O=C(O)c1cccc(NC(=O)c2cc3cc(Br)cc(Br)c3oc2=O)c1 -6.84%, CCOC(=O)c1c(-c2ccc(OC)c(OC)c2)csc1NC(=O)c1ccc(C)cc1 26.5%, CCCCNc1oc(-c2ccc(COc3ccccc3C)o2)nc1C#N -17.9%, COC(=O)c1ccc(NC(=O)C(=O)NCC(c2cccnc2)N2CCN(c3ccccc3)CC2)cc1 (configuration not stated) -9.64%, CCOC(=O)c1cc(-c2ccccc2)n(CCC(=O)NCCc2cccc(C)c2)c1C -31.1%, COc1ccc(S(=O)(=O)NCCc2sc3nc(-c4ccc(C)cc4)nn3c2C)cc1C -9.25%, COc1ccc(S(=O)(=O)N(CC(=O)NCCSc2ccccc2)c2ccc(C)cc2)cc1 -9.99%, CC(=O)c1cccc(NC(=O)Cc2ccc(NC(=O)N3CCCCc4ccccc43)cc2)c1 -2.44%, Cc1oc(-c2ccc(Cl)cc2)nc1CS(=O)CC(=O)NCCc1ccccc1 (configuration not stated) -0.66%, Cc1ccc(Nc2c3c(nc4nc(-c5cccs5)nn24)CCCC3)cc1F -23.8%, COc1ccc(N2C(=O)CSC23C(=O)N(Cc2cccc(C(F)(F)F)c2)c2ccccc23)cc1 (configuration not stated) -5.97%, CCOc1ccc2oc(=O)cc(CN3CCN(Cc4ccc(C)cc4)CC3)c2c1 -12.6%, CCN(CC)CC(=O)OCC(=O)[C@@]1(O)CC[C@H]2[C@@H]3CCC4=CC(=O)CC[C@]4(C)[C@H]3[C@@H](O)C[C@@]21C 8.8%, COc1ccccc1OCC(=O)N(Cc1cccs1)C1CCS(=O)(=O)C1 (configuration not stated) -8.71%, Cc1ccc(S(=O)(=O)c2nc(-c3cccs3)oc2SCC(=O)Nc2cc(C)cc(C)c2)cc1 -22.3%, COc1ccc(S(=O)(=O)NC(C)(C)C)cc1-c1nnc2c3ccccc3c(C)nn12 -7.63%, COc1ccccc1CNc1nc(-c2ccco2)nn1S(C)(=O)=O -23.9%, Cc1cccc(Cn2c(=O)n(CCCC(=O)NCc3ccccc3Cl)c(=O)c3ccccc32)c1 -10.4%, CCOC(=O)Cn1nc(C)c(NC(=O)COc2ccccc2)c1C 2.85%, COc1cc(OC)c(NS(=O)(=O)c2c(C(=O)N3CCCCCC3)c(C)n(C)c2C)cc1Cl -6.31%, Cc1cc(-c2ccc(C)c(S(=O)(=O)Nc3ccccn3)c2)on1 -1.48%, COc1ccc(-n2cc(-c3ccccc3)nc2SCC(=O)Nc2ccccc2C)cc1 -26.5%, Cc1ccc(CNc2nc3ccc(Cl)cc3n3nnnc23)cc1 -0.656%, CCOC(=O)N1CCc2c(sc(NCc3cccc(F)c3)c2C(=O)Nc2ccc(OC)cc2)C1 -0.22%, COC(=O)CC1Oc2ccc(F)cc2-n2cc(-c3ccc(C)cc3)nc21 (configuration not stated) 8.94%
